Reference: PubChem BioAssay AID1347417 (National Center for Advancing Translational Sciences (NCATS), 2020)
Hit rate of the full screen: of about 120,000 compounds, about 5,300 (4.4%) were called active. The inconclusive results got no clear call from the source; some entries with a clear call stand among them for comparison. The call rests on the fitted dose curve; in most records, active means well fitted inhibition curve with a large enough effect; inconclusive means small, poorly fitted or top-dose-only effect; inactive means no such curve, though single readings can be large or run the other way. Potencies of inconclusive entries are doubtful fits and often do not repeat.

experiment: qHTS Primary assay for Inhibitors of Plasmodium falciparum Dd2 growth in vitro; further: nearly all actives have a fitted effect of over 65% in size;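 on activity, negative = inhibition: plate controls were DMSO vehicle for no effect and reference drug for full effect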; conditions: P. falciparum Dd2 growth, SYBR Green, 72 h; activity, negative = inhibition: at 28.9 µM (top of the series) unless noted; series mostly up to 28.9 µM
Method in brief: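 Infected erythrocytes (Dd2, 0.3% parasitemia, 2.5% hematocrit final) are added to compound in RPMI-1640/Albumax II medium, grown 72 h at 37C in low oxygen, then lysed with saponin/Triton-X containing SYBR Green and read by fluorescence.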
Potency means the concentration at half of the fitted maximal effect; tags describe the fitted curve by direction and shape.

SMILES	Potency	activity, negative = inhibition	outcome
NCc1ccccc1-c1cnc2ccccc2c1	active: 10 µM		
O=C(NCc1ccc(F)cc1Cl)c1cc(=O)[nH]c2ccc(S(=O)(=O)N3CCCCC3)cc12	inconclusive: 10 µM [inhibitor, partial curve]		
Clc1ccc(CN2CCN(c3ncnc4sc5c(c34)CCCC5)CC2)cc1Cl		inactive: 43.5%	
COc1ccc(C)cc1NC(=O)c1ccc2c(c1)C(O)CCCCCN2C (stereo unspecified)	inconclusive: 4.47 µM [inhibitor, single point]		
O=C1c2ccccc2-c2onc3c(N4CCN(C5CCCCC5)CC4)cc(NCCO)c1c23	active: 5.01 µM		
CC(C)N1C[C@H](O)C[C@H]1c1nnc2n1CCN(C(=O)CCc1c[nH]c3ccccc13)CC2		inactive: -19.6%	
Cc1ccc(-c2cn3c(n2)sc2cc(C(=O)NCCCN4CCCCCC4)ccc23)cc1	inconclusive: 3.98 µM [inhibitor, single point]		
CCC(C(=O)Nc1ccc2c(c1)CN(Cc1ccc(OC)cc1OC)C(=O)C(C)O2)c1ccccc1 (stereo unspecified)	inconclusive: 3.16 µM [inhibitor, partial curve, poor fit]		
COCCN1Cc2nc(-c3cccc(OC(F)(F)F)c3)ccc2OCC1=O	inconclusive: 8.91 µM [inhibitor, partial curve, poor fit]		
CCCN(CCC)C(=O)c1cc2c(=O)n3cccc(C)c3nc2s1	inconclusive: 20 µM [inhibitor, single point]		
Cc1noc2c(NCCCn3ccnc3)cc(-c3ccc(Cl)cc3)nc12	active: 4.47 µM		
CCOc1ccccc1NC(=O)Cn1c(-c2ccccc2)nc(C)cc1=O	active: 1.58 µM		
CCC(=O)N1CCCCCCNC(=O)[C@@H]2C[C@@H](C(=O)N3CCN(c4ccccn4)CC3)C[C@@H]21	inconclusive: 1.41 µM [inhibitor, full curve]		
CC(C)(C)c1cn(C[C@H]2CC3CCN2C[C@@H]3C(=O)NCc2ccc3c(c2)OCO3)nn1 (stereo partly specified)		inactive: -23.1% [at 44.1 µM]	
Cc1noc(-c2ccc3c(c2)OCO3)c1C(=O)NC(C)CCc1ccccc1 (stereo unspecified)		inactive: -16.2%	
CCOc1ccc(NC(=O)CSC2=Nc3ccccc3C3=NC(CC(=O)NCc4cccs4)C(=O)N23)cc1 (stereo unspecified)	inconclusive: 11.2 µM [inhibitor, single point]		
COc1ccc(C(=O)Nc2ccc3c(c2)CN(C(C)c2ccc(F)cc2)C(=O)CO3)cc1OC (stereo unspecified)	inconclusive: 3.98 µM [inhibitor, single point]		
COc1ccc(N2CC3CCC(C2)N3Cc2cccc(-c3cccs3)c2)cc1		inactive: 10.1%	
O=C1[C@H]2CN(Cc3ccc(Cl)cc3)C[C@H]2C(=O)N1CCN1CCc2ccccc2C1	inconclusive: 10 µM [inhibitor, partial curve, poor fit]		
CCCN(CC1CCOC1)C(=O)Nc1ccc2c(c1)OCCO2 (stereo unspecified)	inconclusive: 0.708 µM [inhibitor, single point]		
CN1CCN(C(=O)C[C@@H]2CCNC[C@@H]2Cc2cc(-c3ccc(C(C)(C)C)cc3)on2)CC1	inconclusive: 10 µM [inhibitor, single point]		
CCC(Sc1nc2c(sc3ccccc32)c(=O)n1CCc1ccc(OC)c(OC)c1)C(=O)N(CC)CC (stereo unspecified)	active: 3.98 µM		

SMILES	Potency	activity, negative = inhibition	outcome
CCc1nc2c(c(-c3ccc(O)cc3)n1)CCN(Cc1cncs1)CC2	inconclusive: 17.8 µM [inhibitor, single point]		
CCc1noc(-c2cccn3c(CNC(=O)c4ccccc4Cl)nnc23)n1	inconclusive: 3.98 µM [inhibitor, single point]		
Cc1cccc(CN2C(=O)c3ccccc3Sc3ccc(C(=O)NCc4ccco4)cc32)c1	inconclusive: 17.8 µM [inhibitor, single point]		
Cn1nccc1CN1CCC2(CC1)Cc1ccccc1NC2=O		inactive: -23.7% [at 44.1 µM]	
CNC(=O)[C@@H]1C[C@H](Oc2ccccc2)CN1C(=O)CCOC		inactive: 1.06%	
O=c1c2ccccc2nc(/C=C/c2cccc3ccccc23)n1-c1ccc(F)cc1F		inactive: 34.9%	
OC(CCc1ccccc1)C1CCN(Cc2nc(-c3ccccn3)no2)CC1 (stereo unspecified)	inconclusive: 10 µM [inhibitor, single point]		
CCN(C1CCOCC1)C1CN(C(=O)C2CCCCC2)C1	inconclusive: 12.6 µM [inhibitor, single point]		
COc1ccc(Cn2cc(S(=O)(=O)c3ccc(C)cc3)c(=O)c3cc(F)ccc32)cc1	inconclusive: 17.8 µM [inhibitor, single point]		
COc1ccc(-c2cnc3[nH]cc(CC(N)=O)c3c2)cc1OC	active: 0.631 µM		
CNC(=O)c1cccc(-c2cnc3[nH]cc(CC(=O)Nc4ccccc4Cl)c3c2)c1	inconclusive: 15.8 µM [inhibitor, single point]		
CC[C@H]1CN2CC[C@H]1C[C@@H]2CN(Cc1ccc(SC)cc1)Cc1ccc(SC)cc1	active: 3.55 µM		
Cc1ccc2sc(N(Cc3cccnc3)C(=O)CCS(=O)(=O)c3ccccc3)nc2c1C	inconclusive: 11.2 µM [inhibitor, single point]		
COc1ccc(N2CCN(C(=O)CSc3nc(-c4ccc(C(C)C)cc4)no3)CC2)cc1	active: 0.282 µM		
O=C(Nc1ccsc1)N[C@H]1C[C@H]2C(=O)NC[C@@H](CCC(=O)N3CCCCC3)N2C1	inconclusive: 17.8 µM [inhibitor, partial curve, poor fit]		
CCN(CC)C(=O)c1sc2c(c1C)c(=O)n(Cc1ccccc1)c(=O)n2Cc1ccccc1C	inconclusive: 17.8 µM [inhibitor, single point]		
COc1ccc(-c2nc3scc(CCNS(=O)(=O)c4ccc(Oc5ccccc5)cc4)n3n2)cc1OC	inconclusive: 12.6 µM [inhibitor, single point]		
Cc1ccsc1CCN1C(=O)N(c2ccccc2)C(=O)C1CC(=O)Nc1ccc(Cl)cc1 (stereo unspecified)	inconclusive: 11.2 µM [inhibitor, single point]		
Cc1ccc(CNC(=O)N2CCCC(c3noc(COc4ccccc4F)n3)C2)cc1 (stereo unspecified)			inactive
Cc1cnc(C2CCC2)n1C1CCN(C(=O)CCC2CCCC2)CC1	inconclusive: 12.6 µM [inhibitor, single point]		
CCOC(=O)c1ccc(NC(=O)c2cnn3c(=O)c4c(n(CC)c23)CCN(Cc2ccc(OC)cc2)C4)cc1	inconclusive: 11.2 µM [inhibitor, single point]		
Cc1ccc2nc(/C(C#N)=C/c3ccccc3F)[nH]c2c1	inconclusive: 8.91 µM [inhibitor, single point]		

SMILES	Potency	activity, negative = inhibition	outcome
Cc1cccc(OCCSc2nnc(-c3cccs3)o2)c1	inconclusive: 11.2 µM [inhibitor, single point]		
CC(=O)Nc1cccc(-c2ccc3ncn(-c4ccc(F)cc4F)c(=O)c3n2)c1		inactive: -22% [at 44.1 µM]	
O=C(c1ccccc1F)N1CCC2(CC1)CC(N(Cc1ccc(F)cc1)C1CC1)CCO2 (stereo unspecified)	inconclusive: 11.2 µM [inhibitor, single point]		
CC(C)CNC(=O)C(C)(C)Oc1nn(C(C)C)c2ccc(CN3CCOCC3)cc12	inconclusive: 2 µM [inhibitor, partial curve]		
CCc1ccc2oc(-c3ccc(C)c(NC(=O)/C=C/c4ccco4)c3)nc2c1	inconclusive: 15.8 µM [inhibitor, single point]		
Cc1ccccc1-c1nc2cnccn2c1NCCC(=O)N(C)Cc1ccccc1	inconclusive: 10 µM [inhibitor, single point]		
CCn1cc(CNC(=O)c2cc(-c3ccc(C)cc3)nc3ccc(Br)cc23)c(C)n1	inconclusive: 7.94 µM [inhibitor, partial curve, poor fit]		
COc1ccc(N2CC(C(=O)N3CCOCC3)NC2=O)cc1 (stereo unspecified)		inactive: 16.8% [at 44.1 µM]	
CCC(C)n1c(C(C)NC(=O)OCc2ccccc2)nc2cccnc21 (stereo unspecified)			inactive
O=C(c1cccc(F)c1)N1CCCC(n2cc(-c3nc(-c4ccccc4)no3)nn2)C1 (stereo unspecified)	inconclusive: 1.78 µM [inhibitor, partial curve, poor fit]		
CCCCN1C(=O)[C@@H]2C[C@@H](O)CN2C2(CN(C3CCN(C(C)=O)CC3)C2)C1=O		inactive: 10.8% [at 44.1 µM]	
CC1CCC2(CC1)OCC(C(=O)NC1CC1)N2C(=O)c1ccccc1F (stereo unspecified)		inactive: 21%	
CC1=NS(=O)(=O)N(C)C=C1C(=O)OCc1nc(-c2ccc(F)cc2)no1		inactive: 55.9%	
Cc1ncoc1C(=O)N1CCC(N2C[C@H](O)C[C@H]2C(=O)NC2CCCCC2)CC1			inactive
CC1(COc2ccccc2)COc2ccc(C(=O)N3CCOCC3c3ccncc3)cc2N1 (stereo unspecified)			inactive
Cc1cccc(NC(=O)Cn2c(-c3ccc(Cl)cc3)nc(C)c(CCO)c2=O)c1C	inconclusive: 17.8 µM [inhibitor, single point]		
COc1ccc(C2Cn3nnc(-c4noc(-c5cccs5)n4)c3CO2)cc1 (stereo unspecified)	inconclusive: 17.8 µM [inhibitor, single point]		
CN(CC1CCN(CCc2ccc(F)cc2)CC1)C1CCN(Cc2cccnc2)CC1	active: 6.31 µM		
Cn1cccc1C(=O)N1CCCCCNC(=O)[C@H]2C[C@H](C(=O)N3CCc4ccccc4C3)C[C@H]21	inconclusive: 0.316 µM [inhibitor, full curve, poor fit]		
COc1ccc(Cn2c3c(c(=O)n2Cc2ccccc2)CCN(C(=O)c2ccnn2C)C3)cc1		inactive: 18.3%	
COc1ccc(Cl)cc1-n1cc(-c2ccccc2)nc1SCC(=O)Nc1ccc(C)cc1	inconclusive: 10 µM [inhibitor, single point]		
O=C(Cc1cccs1)NC1CCN(c2cc(C(F)(F)F)ncn2)CC1	inconclusive: 0.501 µM [inhibitor, full curve, poor fit]		
